{"source": "PubChem BioAssay AID624202", "about": "(National Center for Advancing Translational Sciences (NCATS), 2012)", "note": "The campaign covered roughly 380,000 compounds. About 4,000 (1.1%) were called active. Inconclusive results, whose numbers are uncertain, are shown with a selection of clear calls. The call rests on the fitted dose curve; in most records, active means well fitted activation curve with a large enough effect; inconclusive means small, poorly fitted or top-dose-only effect; inactive means no such curve, though single readings can be large or run the other way. A potency beside an inconclusive call is a rough fit, not a confirmed value. Potency means the concentration at half of the fitted maximal effect; tags describe the fitted curve by direction and shape.", "data": [{"test": "qHTS Assay to Identify Small Molecule Activators of BRCA1 Expression; further: nearly all actives have a fitted effect of over 80% in size", "conditions": "MCF7-BRCA1-FFLuc reporter, luminescence, 48 h; activation: at 46.1 µM (top of the series), scaled: vehicle 0%, 10 µM genistein 100% unless noted", "outline": "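Reporter cells (MCF7, BRCA1 promoter-firefly luciferase) received library compounds across a concentration series for 48 h. End-point luminescence was measured and concentration-effect curves derived after normalization.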", "values": [{"smiles": "CSc1ccccc1NC(=O)c1ccc(N2CCCC2=O)cc1", "Potency": "active: 10 µM"}, {"smiles": "CCc1c(C)nc2cc(-c3ccc(Cl)cc3)[nH]n2c1=O", "Potency": "inconclusive: 7.08 µM [activator, partial curve, poor fit]"}, {"smiles": "COc1ccc(NC(=O)c2ccc(C)cc2)cc1", "Potency": "inconclusive: 0.631 µM [activator, full curve, poor fit]"}, {"smiles": "Fc1ccc(/C=N/Nc2ccccn2)cc1", "Potency": "inconclusive: 10 µM [activator, partial curve, poor fit]"}, {"smiles": "O=C(CNC(=O)c1ccco1)OCC(=O)c1ccc(Cl)cc1", "Potency": "inactive"}, {"smiles": "Cc1cc(/C=C2\\SC(=O)N(C)C2=O)c(C)n1-c1ccc(O)cc1", "activation": "inconclusive: 67.3% [activator]"}, {"smiles": "CC(C)(C)c1ccc(OCC(O)CN2CCc3ccccc3C2)cc1", "note": "(stereo unspecified)", "Potency": "inactive"}, {"smiles": "CS(=O)(=O)c1ccccc1-c1csc(N2CCC(C(N)=O)CC2)n1", "Potency": "inconclusive: 1.58 µM [activator, full curve, poor fit]"}, {"smiles": "CCN1CC(CN(C)Cc2nc(-c3ccc(Cl)cc3)no2)CC1=O", "note": "(stereo unspecified)", "Potency": "inactive"}, {"smiles": "CCC(C)c1ccc(NC(=O)Nc2cccnc2)cc1", "note": "(stereo unspecified)", "Potency": "inconclusive: 2.82 µM [activator, full curve, poor fit]"}, {"smiles": "C/C(=N\\Nc1nncc2ccccc12)c1cccc(OC(F)F)c1", "Potency": "inconclusive: 1.12 µM [activator, full curve, poor fit]"}, {"smiles": "COc1ccc(NC(=O)c2ccco2)c([N+](=O)[O-])c1", "Potency": "inconclusive: 11.2 µM [activator, partial curve, poor fit]"}, {"smiles": "CCOC(=O)c1ccc(NC(=O)C2C3CCCCC32)cc1", "note": "(stereo unspecified)", "Potency": "inconclusive: 14.1 µM [activator, partial curve, poor fit]"}, {"smiles": "CCOC(=O)CC(NC(=O)c1cc2cccc(OC)c2oc1=O)c1ccc(OC)cc1", "note": "(stereo unspecified)", "Potency": "active: 12.6 µM"}, {"smiles": "Cc1cc(C)cc(NC(=O)Nc2ccc(-n3ccc(C(F)(F)F)n3)cc2)c1", "Potency": "inactive"}, {"smiles": "Nc1cc2c(cc1Br)-c1ccccc1C2=NO", "Potency": "inconclusive: 20 µM [activator, single point]"}, {"smiles": "Cc1ccc(NC(=O)c2ccc3c(c2)CCN3S(C)(=O)=O)cc1C", "Potency": "inconclusive: 35.5 µM [activator, single point]"}, {"smiles": "O=C(CSc1nnc(NC(=O)c2ccc(F)cc2)s1)NC1CCCC1", "Potency": "inconclusive: 2.51 µM [activator, full curve, poor fit]"}, {"smiles": "COc1cc(C=O)ccc1OCCCOc1ccccc1[N+](=O)[O-]", "Potency": "active: 7.08 µM"}, {"smiles": "CC1CCc2c(C(=O)NCC3CCCO3)csc2C1", "note": "(stereo unspecified)", "Potency": "active: 11.2 µM"}, {"smiles": "O=C1c2ccccc2S(=O)(=O)N1CC1CC(c2ccccc2)=NO1", "note": "(stereo unspecified)", "Potency": "active: 11.2 µM"}]}]}
